Like-named read-outs stand apart in the source and are kept apart here.
Tests used:
[1] = test system: palmer amaranth (Amaranthus palmeri) containing an Arg128gly mutation in PPO2; conditions: rating 0 to 100, sprayed at plant height 20 cm, 200 L/ha, 1% (w/v) Agri-Dex, evaluated after 14 days in greenhouse
Method: (§1) The compound X (55 mg) produced in Reference Production Example 1, Emulsogen TS290 (polyoxyethylene tristyrylphenyl ether, manufactured by Clariant) (76.5 mg), and Phenylsulfonat CAL (mixture of 70% calcium dodecylbenzene sulfonate and 30% isobutanol, manufactured by Clariant) (76.5 mg) were dissolved in Solvesso 200ND (aromatic hydrocarbon, manufactured by Exxon Mobile) to make a total volume of 1 ml, thus preparing a emulsifiable concentrate (hereinafter referred to as Formulation X).
(§2) Soil was filled in a plastic pot, and palmer amaranth (Amaranthus palmeri) having a Gly210 deficiency in PPO2, palmer amaranth (Amaranthus palmeri) containing an Arg128gly mutation in PPO2, and palmer amaranth (Amaranthus palmeri) having a Gly399Ala mutation in PPO2 were seeded, and then grown in a greenhouse. When the plant height reached 20 cm, spray liquid obtained by diluting a predetermined amount of the formulation X with water containing a 1% (w/v) spreader (Agri-Dex) was evenly sprayed from above the pot using a sprayer such that the spray volume was 200 L/ha and the application rate of the compound X was 20 or 40 g/ha. The plants were then grown for 14 days in the greenhouse, and the herbicidal effect was evaluated. As a control, the formulation X was replaced by a tiafenacil microemulsion Terrador (manufactured by Dongbu Farm Hannong Co., Ltd.), and the application procedure was carried out in the same manner.

[2] = test system: palmer amaranth (Amaranthus palmeri) having a Gly210 deficiency in PPO2; conditions: rating 0 to 100, sprayed at plant height 20 cm, 200 L/ha, 1% (w/v) Agri-Dex, evaluated after 14 days in greenhouse
Method: as §1, §2

[3] = test system: palmer amaranth (Amaranthus palmeri) having a Gly399Ala mutation in PPO2; conditions: rating 0 to 100, sprayed at plant height 20 cm, 200 L/ha, 1% (w/v) Agri-Dex, evaluated after 14 days in greenhouse
Method: as §1, §2

[4] = test system: palmer amaranth (Amaranthus palmeri) having an Arg128Met mutation in PPO2; conditions: 200 L/ha
Method: (§3) In a plastic pot, palmer amaranth (Amaranthus palmeri) having an Arg128Met mutation in PPO2 is seeded. On the same day, compound X is applied to the surface of soil so that the application rate of the compound X is 10, 20, 40 or 80 g/ha and the spray volume is 200 L/ha. The plastic pot is then placed in a greenhouse, and at 7 days after the application, soybeans are seeded, and further at 14 days after seeding the soybeans, the effect on the weeds and crop injuries on the soybeans are investigated.
(§4) In a plastic pot, palmer amaranth (Amaranthus palmeri) having an Arg128Met mutation in PPO2 and soybeans are seeded. On the same day, compound X is applied to the surface of soil so that the application rate of the compound X is 10, 20, 40 or 80 g/ha and the spray volume is 200 L/ha. The soybeans are then cultivated in a greenhouse, and at 21 days after seeding, the effect on the weeds and crop injuries on the soybeans are investigated.
(§5) In a plastic pot, palmer amaranth (Amaranthus palmeri) having an Arg128Met mutation in PPO2 and soybeans are seeded. The soybeans are then cultivated in a greenhouse, and at 21 days after seeding, compound X is foliar-treated so that the application rate of the compound X is 10, 20, 40 or 80 g/ha and the spray liquid amount is 200 L/ha. Further, the soybeans are cultivated in the greenhouse, and at 14 days after the application of compound X, the effect on the weeds and crop injuries on the soybeans are investigated.

[5] = test system: PPO inhibitor-resistant weeds; assay: plastic pot tests as Examples 1 to 72 and variants (Examples 73 to 3456)
Method: as §3, §4, §5
In each application of Examples 1 to 216, in addition to the compound X, the compound Y or the compound Z, RoundupPowerMax (glyphosate-potassium salt 660 g/L) is further added so that the application rate is 32 fluid ounce/acre (1,543 g/ha as glyphosate-potassium salt). Then the application procedure is performed in the same manner.
In each application of Examples 1 to 216, in addition to the compound X, the compound Y or the compound Z, XtendiMax (dicamba-diglycolamine salt 480 g/L) is further added so that the application rate is 1 pint/acre (560 g/ha as dicamba). Then the application procedure is performed in the same manner.
In each application of Examples 1 to 216, in addition to the compound X, the compound Y or the compound Z, RoundupPowerMax and XtendiMax are further added so that the application rate of RoundupPowerMax is 32 fluid ounce/acre and the application rate of XtendiMax is 1 pint/acre, respectively. Then the application procedure is performed in the same manner.
The application is performed in the same manner, except that soybean of Examples 1 to 864 is replaced by corn or cotton.
Then the application procedure is performed in the same manner.

[6] = as Examples 1 to 216, RoundupPowerMax further added at 32 fluid ounce/acre (1,543 g/ha as glyphosate-potassium salt)
[7] = as Examples 1 to 216, XtendiMax further added at 1 pint/acre (560 g/ha as dicamba)

Row | SMILES | herbicidal effect ([1]; 40 g/ha) | herbicidal effect ([2]; 20 g/ha) | herbicidal effect ([2]; 40 g/ha) | herbicidal effect ([3]; 20 g/ha) | herbicidal effect ([3]; 40 g/ha) | effect on the weeds ([4]; foliar treatment 21 days after seeding, 10, 20, 40 or 80 g/ha, investigated 14 days after application) | effect on the weeds ([4]; soil surface application on day of weed seeding, 10, 20, 40 or 80 g/ha, soybeans seeded 7 days after application, investigated 14 days after seeding the soybeans) | effect on the weeds ([4]; weed and soybeans seeded, soil surface application same day, 10, 20, 40 or 80 g/ha, investigated 21 days after seeding) | effect on the weeds [5, 6] | effect on the weeds [5, 7] | herbicidal effect ([1]; 20 g/ha)
1 | CCOC(=O)COC(=O)C1(Oc2cc(-n3c(=O)cc(C(F)(F)F)n(C)c3=O)c(F)cc2Cl)CC1 [Compound X] | 95 | 95 | 98 | 99 | 98 | effective control effect | effective control effect | effective control effect | effective control effect | effective control effect | –
2 | Cn1c(C(F)(F)F)cc(=O)n(-c2cc(OC3(C(=O)OCC(=O)O)CC3)c(Cl)cc2F)c1=O [Compound Z] | – | – | – | – | – | – | – | – | effective control effect | effective control effect | –
3 | COC(=O)COC(=O)C1(Oc2cc(-n3c(=O)cc(C(F)(F)F)n(C)c3=O)c(F)cc2Cl)CC1 [Compound Y] | – | – | – | – | – | – | – | – | effective control effect | effective control effect | –
4 | COC(=O)CCNC(=O)C(C)Sc1cc(-n2c(=O)cc(C(F)(F)F)n(C)c2=O)c(F)cc1Cl (centres unmarked) [Tiafenacil, tiafenacil, reference compound] | 40 | 20 | 30 | 40 | 40 | – | – | – | – | – | 30

From US20240049713A1, “METHOD FOR CONTROLLING HERBICIDE-RESISTANT WEEDS” (SUMITOMO CHEMICAL COMPANY, LIMITED, priority 2020, published 2024)
